Results: ChEMBL document CHEMBL4888484, “Replenishing the malaria drug discovery pipeline: Screening and hit evaluation of the MMV Hit Generation Library 1 (HGL1) against asexual blood stage Plasmodium falciparum ,using a nano luciferase reporter read-out” (2022)
Out of some 150,000 compounds screened, about 540 (0.36%) showed an effect of 50% or more. This is one part of the list.

tested on: Plasmodium falciparum; experiment: Primary screen in NF54 nanoGlo assay, in single point, at 2uM, 72h; a lower Z score goes with more inhibition; format: functional, Erythrocyte; conditions: timepoint 72 hour

Q: `CC(=O)Nc1nc(CN[C@@H](C2CCCC2)C(F)(F)F)cs1` was tested. Which “% Inhibition” value did it give?
A: The value was -13%.

Q: And the Z score?
A: Its Z score is 1.91.

Q: How did the “% Inhibition” value turn out when `O=C(O[C@@H](c1ccccc1)c1cccnc1)c1ccnc(C2CC2)n1` was run?
A: Its value is -9%.

Q: And the Z score?
A: The Z score was 1.22.

Q: With `Cc1cccc(NC(=O)N2C3CCC2CC(Oc2cccnc2)C3)c1` (stereo not drawn) as the compound, how does the “% Inhibition” value read?
A: The value was 11%.

Q: What about the Z score of the same compound?
A: Its Z score is -1.67.

Q: Which results are given for `CN1C(=O)CN(Cc2cc3c(cc2Cl)OCO3)C(=O)c2ccccc21`?
A: % Inhibition: -10%; Z score: 1.35

Q: How did the “% Inhibition” value turn out when `O=C(O)c1cc(C2CC2)nc2c1c(C1CC1)nn2-c1ccccc1F` was run?
A: Its value is -9%.

Q: What about the Z score of the same compound?
A: The Z score was 1.28.

Q: Which results are given for `CC1CN(C(C)c2nnc(-c3ccc4ccccc4c3)o2)CC1O` (stereo not drawn)?
A: % Inhibition: -3%; Z score: 0.54

Q: Which results are given for `COCc1cc(C(=O)N2CC(C)(C)c3c(Cl)cccc32)no1`?
A: % Inhibition: -3%; Z score: 0.48

Q: Which results are given for `Cc1ccc(-n2cc(-c3ccccc3)nc2NC(=O)CN(Cc2ccco2)C(=O)c2ccccc2Cl)cc1`?
A: % Inhibition: 5%; Z score: -0.6

Q: With `COc1ccc(-c2nnsc2C(=O)NCc2ccc(Cl)cc2)cc1` as the compound, how does the “% Inhibition” value read?
A: The value was -6%.

Q: And the Z score?
A: The Z score was 0.92.

Q: With `NC(=O)NCCC[C@@H]1NC(=O)[C@H](Cc2ccccc2)NC1=O` as the compound, how does the “% Inhibition” value read?
A: Its value is -12%.

Q: And the Z score?
A: Its Z score is 1.78.

Q: Which results are given for `Cc1noc([C@@H]2CC(F)(F)CN2C(=O)c2cnco2)n1`?
A: % Inhibition: -3%; Z score: 0.48

Q: How did the “% Inhibition” value turn out when `CC(C)(C)OC(=O)NC1(CN)CCCCC1` was run?
A: Its value is -14%.

Q: What about the Z score of the same compound?
A: Its Z score is 1.14.

Q: `CC(O)C(=O)NC(c1cccc(F)c1F)C(F)(F)F` (stereo not drawn) was tested. Which “% Inhibition” value did it give?
A: Its value is -16%.

Q: And the Z score?
A: Its Z score is 2.5.

Q: For `c1cnn(-c2cncc(N3CCCCCCC3)n2)c1`, which “% Inhibition” value is on record?
A: The value was -18%.

Q: What about the Z score of the same compound?
A: The Z score was 1.79.

Q: Which results are given for `Cc1noc(C)c1CNC(=O)N1CC(C)OC(c2ccsc2)C1` (stereo not drawn)?
A: % Inhibition: 0%; Z score: 0.06

Q: Which “% Inhibition” value does the source give for `COc1cccc(N2CCN(C(=O)COc3cccnc3)CC2(C)C)c1` here?
A: Its value is -6%.

Q: What about the Z score of the same compound?
A: Its Z score is 1.

Q: How did the “% Inhibition” value turn out when `CCn1c(Cn2nc3ccccn3c2=O)nc2cc(F)ccc21` was run?
A: The value was -3%.

Q: And the Z score?
A: Its Z score is 0.35.

Q: `CC1COCC(C)N1C(=O)c1c[nH]c2ncccc12` (stereo not drawn) was tested. Which “% Inhibition” value did it give?
A: Its value is 1%.

Q: What about the Z score of the same compound?
A: The Z score was -0.18.

Q: `CCC(=O)N1CCC(NCc2nccn2C)C(CC)C1` (stereo not drawn) was tested. Which “% Inhibition” value did it give?
A: The value was -15%.

Q: What about the Z score of the same compound?
A: Its Z score is 2.17.

Q: With `COCc1nc(C(=O)NC2=NO[C@@H](C)C2)c(-c2ccccc2)s1` as the compound, how does the “% Inhibition” value read?
A: Its value is -6%.

Q: What about the Z score of the same compound?
A: The Z score was 0.54.

Q: What does the source list for `CCc1nccn1C1CCCN(S(=O)(=O)N(C)CC(C)C#N)C1` (stereo not drawn)?
A: % Inhibition: -10%; Z score: 1.56

Q: Which results are given for `Clc1ccc(-c2ccc(-c3nc4ccccc4s3)o2)cc1Cl`?
A: % Inhibition: 33%; Z score: -3.75

Q: What does the source list for `COc1ccc(C(=O)N2CCCCCNC(=O)[C@H]3C[C@H](C(=O)N4CCc5ccccc5C4)C[C@H]32)cn1`?
A: % Inhibition: -10%; Z score: 1.75

Q: For `O=C(Cn1cc(N[C@H]2CCCc3sccc32)cn1)NCCO`, which “% Inhibition” value is on record?
A: The value was -3%.

Q: And the Z score?
A: The Z score was 0.37.
